In ChEMBL document CHEMBL4888484, “Replenishing the malaria drug discovery pipeline: Screening and hit evaluation of the MMV Hit Generation Library 1 (HGL1) against asexual blood stage Plasmodium falciparum ,using a nano luciferase reporter read-out” (2022):
The campaign covered roughly 150,000 compounds. About 540 (0.36%) showed an effect of 50% or more. The list shows a part of the results.

Tested on: Plasmodium falciparum
Assay: Primary screen in NF54 nanoGlo assay, in single point, at 2uM, 72h; a lower Z score goes with more inhibition
Assay type: functional, Erythrocyte
Details: timepoint 72 hour

Compound	% Inhibition [%]	Z score
Cc1ccccc1OCC(=O)NS(C)(=O)=O	-1	0.11
CCN(CC(=O)NCc1cccs1)C(=O)c1cccn1C	-3	0.49
Cc1nscc1C(=O)Nc1ccnn1Cc1ccsc1	-5	0.47
COc1ccc(NS(=O)(=O)c2ccc(Cl)c(NC(=O)COc3ccc4ccccc4c3)c2)cc1Br	-6	0.79
Cc1ccc(-n2ncc3c(N)c4c(nc32)CC(C)(C)CC4=O)cc1C	-22	2.89
Cc1nc2c(C(=O)N3CCOCC34CC4)cccc2o1	8	-0.99
COc1cccc(NC(=O)NCCc2cn[nH]c2)n1	-1	0.23
CC(C)N(C)CC(=O)N1CCC[C@@]2(CCC(=O)N(Cc3cccnc3)C2)C1	-18	2.82
O=C(c1cccnc1)N1N=C2CCCCC2C1(O)C(F)(F)F (stereo not drawn)	-7	1.3
C[C@@H](CCc1ccccc1)NC(=O)NCCc1ccco1	-5	0.6
CC(=O)N(C(=O)c1ccccc1)[C@H]1[C@@H](OCc2ccccc2)O[C@@H]2COC(c3ccccc3)O[C@H]2[C@@H]1OC(=O)c1ccccc1 (stereo partly drawn)	-15	2.74
CCCn1cnnc1CN(C)C(=O)NCc1csc2c1CCCC2	1	-0.21
C[C@H]1Cc2ccccc2N1C(=O)c1cnns1	-4	0.86
Cc1nc(Nc2ccc(F)cn2)sc1C(=O)NC1CC1	-5	0.85
OC[C@]1(F)CCN(Cc2nc3ccc(F)cc3o2)C1	21	-2.57
O=C(c1cc(-c2ccccc2)[nH]n1)N1CCN(c2cnccn2)CC1	-5	0.92
CCCN1C[C@@H](CNC(=O)NCc2ccc3occc3c2)CC1=O	-1	0.25
CCc1csc(NC2CC[C@@H](O)[C@@H](O)C2)n1 (stereo partly drawn)	-5	0.82
COc1ccc(O[C@H]2COCCN(C(=O)CC(C)(C)C)C2)cc1	-2	0.44
CCc1ccccc1NC(=O)N1CCC(n2cnc3cccnc32)CC1	-12	1.59
C[C@](O)(CNc1nc(C2CCOCC2)ns1)c1cccc(F)c1	-12	2.32
CCc1cc(C(=O)N[C@@H](C)Cn2cccn2)sc1C	-6	1.04
O=C(N[C@@H](C1CCCC1)C(F)(F)F)C1CCC(F)(F)CC1	-8	0.81
O=C(c1c[nH]nc1-c1ccsc1)N1CC[C@@H](O)C1	-6	0.89
CCn1nncc1CN1C[C@H](C)Oc2c(Cl)cccc21	0	-0.07
C[C@H](O)c1nc(C2CCOCC2)nn1-c1ccc2c(c1)CCC2	9	-1.13
O=C(O)c1cc(NS(=O)(=O)c2cc(F)ccc2F)ccc1N1CCN(C2CCCCC2)CC1	-1	0.08

Compound	% Inhibition [%]	Z score
CCc1cnc(CN2CCC[C@H](c3noc(C(C)C)n3)C2)o1	-3	0.23
Cc1n[nH]cc1CN(C)Cc1ccnc2ccccc12	-2	0.33
Cc1ccc(-c2nn(-c3nc(-c4ccccc4)cc(C(F)(F)F)n3)c(-c3ccc(C)cc3)c2Cl)cc1	33	-3.78
COc1cccc(CNc2ccc3nn[nH]c3c2)c1O	-11	1.36
CCn1cnnc1CNC(=O)[C@@H]1CCCN1C(=O)OC(C)(C)C	-6	0.94
Brc1cnn(CCn2cccn2)c1	-11	1.3
Cc1ccc(N2C[C@@H](c3nc(CCS(=O)(=O)c4ccccc4)no3)CC2=O)cc1	-9	0.88
CCC(=O)Nc1ccc(Oc2c(C)c(C(=O)O)nn2C(C)(C)C)c(S(=O)(=O)N[C@@H](C)CC)c1	-11	1.03
CO[C@@H](C)c1nc(C)c(-c2nc(-c3ccc(C(N)=O)cc3)no2)s1	-10	1.13
Cc1ocnc1C(=O)N1CCN(Cc2ccccc2)[C@@H]2CS(=O)(=O)C[C@@H]21	-7	1.31
CCC#CCN1CC=C(CNC(=O)c2cccc(OC)c2)CC1	-16	2.33
C[C@@H]1Oc2ccc(C(=O)C3CCN(c4cccc(C(=O)O)n4)CC3)cc2NC1=O	-8	1.54
O=C(Cc1ccccc1)N1C[C@H](c2ncco2)C2(CCN(CC3CC3)CC2)C1	-3	0.45
CCc1nn(Cc2nnsc2Cl)c(=O)c(C#N)c1CC	-15	2.84
CN(C(=O)CCS(C)(=O)=O)c1ccc(Cl)cn1	-4	0.53
C=C(C)COc1ccccc1C(=O)N1CCC[C@@]2(CCNC2)C1	-15	1.44
CN(Cc1ccccc1)c1ncccc1CNc1ncccc1C(=O)O	-1	0.2
CCN(C[C@H](C)C#N)S(=O)(=O)N(C)Cc1cc(C)ccc1F	-2	0.33
CCCC1CCC(c2nc(-c3cccnc3)no2)CC1 (stereo not drawn)	4	-0.51
CN(Cc1ccco1)C(=O)NCC1(c2ccccc2)CC1	2	-0.16
Cc1ccc(NC(=O)N2CC(Cn3cncn3)C2)cc1C	-14	1.77
Cc1cc(C(=O)N2CC[C@H]3C(=O)N(CC(C)C)CC(=O)N3CC2)no1	-3	0.57
OCCc1ccccc1-n1ccnc1-c1cccc2nonc12	-5	0.74
CN(C)c1noc(CNC(=O)N2CCC[C@H](c3nc4c(s3)CCCC4)C2)n1	-12	1.42
O=C(N1CCCC1)N1c2ccccc2CCc2ccccc21	-7	1.32
CO[C@@H](C)C(=O)Nc1cc(F)ccc1C(C)=O	29	-3.26
COc1c(C)cc([C@H]2CCc3nc(C(=O)NC4CCN(Cc5ccccc5)CC4)cn3C2)cc1C	8	-1.4
